Legend:
integrin β1 subunit = molecular target: T1, integrin β1 subunit; assay: integrin immunoprecipitation (mAb QE2E5) from SW480 β6 transfectant lysates, Western blot with anti-ERK mAb SC-1647
T1 construct: whole, on cells; Immunoprecipitated from cell lysates

integrin β5 subunit = molecular target: T2, integrin β5 subunit (human); assay: integrin immunoprecipitation (mAb P1F6) from SW480 β6 transfectant lysates, Western blot with anti-ERK mAb SC-1647
T2 construct: whole, on cells; Immunoprecipitated from cell lysates
T2 sequence (looked up): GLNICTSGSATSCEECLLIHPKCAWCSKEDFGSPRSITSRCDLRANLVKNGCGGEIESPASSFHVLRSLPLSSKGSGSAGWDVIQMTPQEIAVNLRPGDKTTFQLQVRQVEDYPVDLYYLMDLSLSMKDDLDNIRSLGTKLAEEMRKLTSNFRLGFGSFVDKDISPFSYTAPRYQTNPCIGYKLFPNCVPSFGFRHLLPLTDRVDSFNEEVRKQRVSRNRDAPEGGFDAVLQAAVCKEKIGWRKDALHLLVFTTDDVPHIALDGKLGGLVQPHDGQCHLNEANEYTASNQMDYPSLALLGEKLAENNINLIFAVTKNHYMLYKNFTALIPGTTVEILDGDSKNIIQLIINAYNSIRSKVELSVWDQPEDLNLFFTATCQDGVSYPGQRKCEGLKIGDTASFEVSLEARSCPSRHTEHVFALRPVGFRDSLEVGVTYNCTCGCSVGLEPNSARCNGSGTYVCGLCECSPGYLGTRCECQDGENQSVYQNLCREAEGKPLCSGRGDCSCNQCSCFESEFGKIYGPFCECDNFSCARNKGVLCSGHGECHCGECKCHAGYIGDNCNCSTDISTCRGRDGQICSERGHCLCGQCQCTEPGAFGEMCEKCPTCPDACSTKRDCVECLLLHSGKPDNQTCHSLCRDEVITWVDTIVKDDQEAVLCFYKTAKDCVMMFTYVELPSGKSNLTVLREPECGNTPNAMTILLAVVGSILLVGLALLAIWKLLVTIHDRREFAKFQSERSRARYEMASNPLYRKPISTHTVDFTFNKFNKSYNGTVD

- binding result (integrin β1 subunit): no binding
- binding result (integrin β5 subunit): no binding
B1: ERK (endogenous extracellular signal-regulated kinase in cell lysates, band migrating at the position of ERK2) (enzyme)
chain: not shown
notes: also called β6-associated ERK

From patent US20140187612A1 (INTER K, published 2014)
